# Laboratory results as given in paper PMC4336329 (PLoS ONE, 2015).
# Hit rate of the full screen: of about 310,000 compounds, about 14,000 (4.5%) showed an effect of 50% or more. Effects have a minus sign here. This is one part of the list.
# Molecular target: human ether-à-go-go-related gene (hERG) potassium channel (human, UniProt Q12809)
# Assay: primary screen, population patch clamp on CHO cells stably expressing hERG
# 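Further: peak tail current of the secondary pulse compared with the same well before compound.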
# Sequence of human ether-à-go-go-related gene (hERG) potassium channel (Q12809 whole entry, looked up): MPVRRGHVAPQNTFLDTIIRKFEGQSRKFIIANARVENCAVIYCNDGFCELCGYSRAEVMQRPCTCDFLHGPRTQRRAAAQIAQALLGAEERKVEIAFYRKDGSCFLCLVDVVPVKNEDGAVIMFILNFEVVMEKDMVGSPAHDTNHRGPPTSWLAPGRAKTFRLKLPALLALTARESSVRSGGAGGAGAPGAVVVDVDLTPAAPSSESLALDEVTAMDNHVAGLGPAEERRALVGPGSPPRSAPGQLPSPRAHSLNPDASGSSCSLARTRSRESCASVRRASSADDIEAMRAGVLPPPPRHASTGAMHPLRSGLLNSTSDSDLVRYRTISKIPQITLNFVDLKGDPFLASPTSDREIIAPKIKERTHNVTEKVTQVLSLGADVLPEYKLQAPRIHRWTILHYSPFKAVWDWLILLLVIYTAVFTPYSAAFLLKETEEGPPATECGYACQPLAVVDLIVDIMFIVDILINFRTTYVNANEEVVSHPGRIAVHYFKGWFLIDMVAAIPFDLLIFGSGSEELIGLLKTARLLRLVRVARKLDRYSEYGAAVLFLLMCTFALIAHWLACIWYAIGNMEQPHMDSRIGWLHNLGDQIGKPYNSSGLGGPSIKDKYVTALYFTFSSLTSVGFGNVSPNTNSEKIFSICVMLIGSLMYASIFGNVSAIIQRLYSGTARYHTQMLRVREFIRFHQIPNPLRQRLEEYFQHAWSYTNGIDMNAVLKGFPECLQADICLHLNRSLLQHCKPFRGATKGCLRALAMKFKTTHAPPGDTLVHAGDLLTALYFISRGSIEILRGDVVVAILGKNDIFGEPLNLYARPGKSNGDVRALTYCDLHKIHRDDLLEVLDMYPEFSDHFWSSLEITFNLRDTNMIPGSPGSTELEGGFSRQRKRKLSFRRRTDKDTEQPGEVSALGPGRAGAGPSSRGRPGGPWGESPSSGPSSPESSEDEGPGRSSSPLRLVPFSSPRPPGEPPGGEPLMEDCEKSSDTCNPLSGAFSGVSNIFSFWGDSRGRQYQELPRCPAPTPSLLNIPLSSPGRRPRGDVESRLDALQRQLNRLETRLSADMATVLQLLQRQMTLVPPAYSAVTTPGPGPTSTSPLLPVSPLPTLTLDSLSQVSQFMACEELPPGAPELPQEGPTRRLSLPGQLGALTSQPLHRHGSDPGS
row,Compound,"hERG current change (%, negative = inhibition) at 10uM [%]"
1,CCn1c(CCNC(=O)c2ccc(C)cc2)nnc1SCc1ccc(Cl)c(Cl)c1,-45.7
2,C=CCc1cccc(C=Nc2c[nH]c(=O)[nH]c2=O)c1O,15
3,COc1cccc(N2C(=O)CC(Nc3ccc(N4CCOCC4)cc3)C2=O)c1 (stereo not shown),-1.14
4,CCNC(=O)NC(=O)C(C)OC(=O)C1CCN(S(=O)(=O)c2ccccc2F)CC1 (stereo not shown),-2.35
5,O=c1cc(C(F)(F)F)nc(SCc2cccc3ccccc23)[nH]1,24
6,O=C1NC(=O)/C(=C/c2ccc(O)cc2)S1,14.4
7,N#Cc1ccc(S(=O)(=O)N2CCCN(c3ccc(C(F)(F)F)cn3)CC2)cc1,-73.9
8,O=c1[nH]c(-c2ccccc2)cnc1-c1ccccc1,17
9,CC(=O)Nc1ccc(NC(=O)c2cccc3c2-c2ccccc2C3=O)cc1,5.91
10,COCC(=O)NC1CC2CCCC(C1)N2Cc1ccccc1 (stereo not shown),-4.63
11,CC1CCC(C(=O)NC(C(=O)N2CCC(N3CCCCC3)CC2)C(C)C)CC1 (stereo not shown),-8.26
12,Cc1ccc(S(=O)(=O)N(CC(=O)NCc2cccnc2)c2ccc(F)cc2)cc1,-61.2
13,O=C(NC1CCCC1)c1ccc(CS(=O)(=O)c2ccc(Cl)cc2)o1,-9.03
14,CC(=O)c1ccc(OC2OCCOC2Oc2ccc(C(C)=O)cc2)cc1 (stereo not shown),1.57
15,O=C(Cc1ccccc1)NCCS(=O)c1ccc(Cl)cc1 (stereo not shown),-8.77
16,CC(NC(=O)C(Cc1ccccc1)N1C(=O)C2C3CCC(C3)C2C1=O)c1ccccc1 (stereo not shown),10.8
17,COc1cc(NC(=O)CCc2nnc3ccc(N4CCCCC4)nn23)cc(OC)c1OC,18.4
18,CC(=O)N1CCc2[nH]c3ccccc3c2C1,4.55
19,COc1cc(NC(=O)CN(C)S(=O)(=O)c2cccs2)cc(OC)c1,12.5
20,C=CCNC(=O)CC(=O)N/N=C/c1ccccc1F,11.9
21,COc1cccc2cc(C(C)N(CCCN3CCOCC3)C(=O)Nc3ccc(Cl)cc3)oc12 (stereo not shown),-46
22,CCOC(=O)c1[nH]ncc1CN1CCCC(C(=O)c2ccc(OC)cc2C)C1 (stereo not shown),-49.4
23,COc1ccc(OCc2cc(C(=O)N(C)CCC3CCOCC3)no2)c(Cl)c1,-42.1
24,N/C(=N\OC(=O)Cc1ccccc1[N+](=O)[O-])c1cccnc1,-3.97
25,COc1ccc(/C=C(/NC(=O)c2ccco2)C(=O)N2CCCC2=O)cc1,-8.68
